# Test results: the supplement of paper PMC7826260
# The list shows a part of the results. Each Rep nickase domain was tested in vitro on the same pool of single strands at 3 µM enzyme and 37 °C for 1 h; the strands have 90 letters, of which the middle is given. The score is log2 (uncut reads / reads without enzyme); strong cutting gives strongly negative numbers. There is no active / inactive call. Because reads are shares of a total, they shift together; where an enzyme cuts many sequences, the uncut ones exceed 0.
# Tests used:
# Assay in all cases: uncleaved DNA left, log2 of reads against the no-enzyme library (log2 ratio); higher = less cleavage (more negative = more Rep cleavage of the k-mer); sequences stand for … in CTCGTCCG…ACCGGAGA
# [1] = system: T1, Rep nickase domain of Muscovy duck circovirus
# T1 sequence (residues 1-111, tag not shown): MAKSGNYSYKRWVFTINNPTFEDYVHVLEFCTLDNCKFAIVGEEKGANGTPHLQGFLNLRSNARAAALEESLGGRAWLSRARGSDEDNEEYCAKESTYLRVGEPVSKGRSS
# Method: (§1)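 A pool of 90-nt single-stranded DNAs with seven random bases just before the constant AC of the nick site (name = the seven bases) was cut by 3 µM recombinant His6-SUMO-tagged Rep nickase domain (300 nM DNA, 50 mM HEPES pH 8.0, 50 mM NaCl, 1 mM MnCl2, 1 h, 37 °C, three replicates). Uncut DNA was amplified and sequenced.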
# [2] = system: T2, Rep nickase domain of banana bunchy top virus
# T2 sequence (residues 1-94, tag not shown): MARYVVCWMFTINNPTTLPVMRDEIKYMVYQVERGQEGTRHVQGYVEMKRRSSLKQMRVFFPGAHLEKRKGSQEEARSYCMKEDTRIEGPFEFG
# Method: as §1
# [3] = system: T3, Rep nickase domain of cabbage leaf curl virus
# T3 sequence (residues 1-116, tag not shown): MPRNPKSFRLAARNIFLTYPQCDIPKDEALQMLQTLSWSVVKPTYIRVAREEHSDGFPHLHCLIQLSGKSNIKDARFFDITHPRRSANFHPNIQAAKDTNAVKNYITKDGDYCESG
# Method: as §1
# [4] = system: T4, Rep nickase domain of chickpea chlorotic dwarf virus
# T4 sequence (residues 1-124, tag not shown): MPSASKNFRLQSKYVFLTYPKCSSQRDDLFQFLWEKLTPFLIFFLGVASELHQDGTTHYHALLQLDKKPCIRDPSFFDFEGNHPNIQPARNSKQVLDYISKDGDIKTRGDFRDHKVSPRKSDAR
# Method: as §1
# [5] = system: T5, Rep nickase domain of faba bean necrotic yellows virus
# T5 sequence (residues 1-98, tag not shown): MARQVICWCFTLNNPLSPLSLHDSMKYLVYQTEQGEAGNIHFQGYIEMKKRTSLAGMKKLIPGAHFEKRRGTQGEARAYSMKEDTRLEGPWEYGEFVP
# Method: as §1
# [6] = system: T6, Rep nickase domain of maize striate mosaic virus
# T6 sequence (residues 1-117, tag not shown): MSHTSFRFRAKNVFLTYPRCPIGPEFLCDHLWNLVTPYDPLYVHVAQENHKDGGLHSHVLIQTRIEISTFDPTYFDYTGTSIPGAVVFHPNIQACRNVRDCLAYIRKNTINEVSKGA
# Method: as §1
# [7] = system: T7, Rep nickase domain of porcine circovirus 2
# T7 sequence (residues 2-116, tag not shown): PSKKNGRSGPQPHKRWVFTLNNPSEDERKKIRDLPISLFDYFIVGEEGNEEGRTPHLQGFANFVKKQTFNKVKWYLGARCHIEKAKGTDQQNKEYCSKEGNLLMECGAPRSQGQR
# Method: as §1
# [8] = system: T8, Rep nickase domain of tomato yellow leaf curl virus
# T8 sequence (residues 1-136, tag not shown): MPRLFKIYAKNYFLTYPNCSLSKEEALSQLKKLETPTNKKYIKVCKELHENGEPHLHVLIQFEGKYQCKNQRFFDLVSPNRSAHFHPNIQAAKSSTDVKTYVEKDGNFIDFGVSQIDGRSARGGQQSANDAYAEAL
# Method: as §1
# [9] = system: T9, Rep nickase domain of wheat dwarf virus
# T9 sequence (residues 1-137, tag not shown): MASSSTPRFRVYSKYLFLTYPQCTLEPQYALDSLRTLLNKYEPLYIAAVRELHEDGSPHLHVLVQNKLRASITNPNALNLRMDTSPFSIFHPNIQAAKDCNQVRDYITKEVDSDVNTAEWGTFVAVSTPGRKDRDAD
# Method: as §1
Sequence,uncleaved DNA left (log2) [1],uncleaved DNA left (log2) [2],uncleaved DNA left (log2) [3],uncleaved DNA left (log2) [4],uncleaved DNA left (log2) [5],uncleaved DNA left (log2) [6],uncleaved DNA left (log2) [7],uncleaved DNA left (log2) [8],uncleaved DNA left (log2) [9]
TGTAACA,-0.149,-0.129,0.0509,-0.634,-0.0797,0.968,-0.151,-0.0151,0.0402
ACTTAGG,0.129,-0.0105,-0.39,0.249,-0.0111,-0.686,0.179,0.0549,0.0435
CCAAGGA,-0.157,-0.0833,0.086,0.284,-0.201,-0.393,0.055,-0.194,-0.0328
TTAGTTG,0.197,-0.038,0.022,0.0077,0.15,-0.329,0.191,0.0733,0.141
TATATAT,0.0282,-0.431,-0.19,-1.59,0.0505,0.345,-1,0.158,0.0595
GCACGCG,-0.0257,0.0547,-0.563,0.488,0.0326,-0.313,0.183,0.00906,-0.162
TCTCATG,-0.0681,-0.166,-0.422,-0.886,0.0153,-1.05,-0.0132,-0.152,-0.151
TGCTCGG,0.0248,-0.0349,0.428,1.28,-0.0842,1.8,-0.0349,-0.138,-0.034
GGCAGCA,0.0523,0.0647,0.557,1.25,0.0389,1.37,0.114,0.0722,0.133
AGCCATG,0.03,0.0339,0.063,0.46,-0.0388,0.925,0.149,-0.157,0.121
ATGGCAT,0.0418,0.0888,0.319,1.61,-0.012,1.74,0.241,-0.0296,0.0721
TATGGAG,0.154,0.0666,-0.612,-0.406,0.283,-0.94,0.264,0.154,-0.0519
GGGCGTT,0.0886,0.0157,0.872,1.85,0.119,2.23,0.0925,-0.0263,0.135
ACAAACT,-0.0976,-0.149,-0.572,-3.21,-0.0775,-1.11,-0.154,-0.155,-0.116
TCCTTGC,-0.0196,-0.0854,-0.739,-0.4,0.0269,-1.17,0.102,-0.0218,-0.189
CAGTCGA,0.15,0.0157,-0.604,-0.751,0.0642,-1.08,-0.791,0.105,0.0141
TAGCCCT,-0.0362,0.0188,-0.7,-2.48,-0.0424,0.408,-3.57,0.0259,0.0238
TCAGGCT,0.00961,0.0277,0.25,0.573,-0.00754,0.907,0.0633,-0.0933,0.0365
ATATTTC,0.00473,0.0871,-0.0273,-0.434,0.0339,-0.932,-0.00984,-0.0468,-0.0491
GCGATCG,0.089,-0.00549,-0.326,-0.087,-0.0527,-0.54,0.0611,-0.0146,-0.0383

Sequence,uncleaved DNA left (log2) [1],uncleaved DNA left (log2) [2],uncleaved DNA left (log2) [3],uncleaved DNA left (log2) [4],uncleaved DNA left (log2) [5],uncleaved DNA left (log2) [6],uncleaved DNA left (log2) [7],uncleaved DNA left (log2) [8],uncleaved DNA left (log2) [9]
GCCCCGC,-0.0437,-0.0266,-0.127,0.0185,0.0238,-0.422,-0.00529,0.0295,-0.0189
TTCGTAG,-0.0309,-0.115,-0.529,-0.739,-0.087,-1.45,0.0357,-0.025,-0.229
ATAAGGC,-0.0136,-0.0243,-1.95,-2.05,0.00879,-1.04,0.102,-0.00855,-0.322
GTAGAGC,0.0917,0.0278,0.136,0.532,0.0135,-0.0768,0.0437,-0.0121,0.148
ATTTCCT,-0.974,-0.568,-0.157,-2.56,-0.0808,-0.629,-1.95,-0.00988,0.0167
ATATTTA,-0.0948,-0.0406,-0.117,-1.84,-0.107,-0.691,-0.426,-0.0324,-0.0484
GCCAGTA,0.00609,0.098,0.27,0.119,0.206,0.108,0.132,0.129,0.12
CAGTGTG,-0.045,-0.0515,-0.747,0.131,-0.0621,-0.621,-0.0543,0.118,0.0101
AGGAGTG,0.102,0.0638,-0.00349,0.561,0.108,1.08,0.0789,-0.0691,0.0608
TAATTTG,-0.00774,-0.0414,-1.87,-2.52,0.145,-1.64,-0.00899,0.0387,-0.254
ACGTGCC,0.07,0.012,-0.192,-0.0819,-0.0208,-0.556,0.0842,-0.00844,-0.0759
GTGTCGT,-0.0934,-0.0135,0.122,0.308,-0.0129,0.0784,-0.145,0.0753,-0.0289
AGTTATG,-0.013,-0.0486,-0.0403,0.13,-0.0543,-0.0692,-0.0514,-0.00886,0.0156
AGCCACC,0.00982,0.0224,0.164,0.295,-0.058,0.364,-0.571,-0.0187,0.00437
ACAAGAG,-0.0328,-0.0444,-0.655,0.207,0.0665,-0.75,0.197,0.0264,-0.0991
GCATGCT,-0.415,-0.0701,-0.818,-0.945,0.0279,-0.841,-0.778,0.0743,-0.0591
AGACCAG,0.0662,-0.00938,0.381,1.08,-0.00357,0.12,0.0753,0.0262,0.09
TAGATCC,-0.0364,-0.017,0.113,0.025,0.0403,0.262,-0.13,0.0274,0.105
TGTTCCC,-0.0452,0.0465,0.222,0.36,-0.0753,0.926,-0.279,-0.0227,-0.0435
CATCCTG,-0.253,-0.0681,-0.362,-0.211,-0.171,-0.555,-0.111,-0.0423,-0.0716

Sequence,uncleaved DNA left (log2) [1],uncleaved DNA left (log2) [2],uncleaved DNA left (log2) [3],uncleaved DNA left (log2) [4],uncleaved DNA left (log2) [5],uncleaved DNA left (log2) [6],uncleaved DNA left (log2) [7],uncleaved DNA left (log2) [8],uncleaved DNA left (log2) [9]
CCAGTTT,-0.0782,-0.0555,-0.278,-1.94,-0.0519,-0.482,-0.282,-0.108,-0.223
AAGTGTT,-1.42,-2.63,-0.295,-0.235,-2.46,1.55,-3.78,-0.216,-0.173
GGTAAGG,0.231,0.122,0.563,1.26,0.145,1.57,0.275,0.155,0.285
GCGCTTT,-0.109,-0.137,-0.113,-0.702,-0.105,0.0544,-0.138,-0.0613,-0.0349
CGGACAG,0.0723,0.185,0.908,2.01,0.196,2.26,0.248,0.176,0.262
GCCGTGT,-0.0999,-0.144,-0.209,-0.0915,-0.146,-0.384,-0.188,-0.181,-0.326
TCAAGAA,0.0126,-0.0352,0.104,0.0783,0.0199,-0.406,0.018,0.0216,-0.025
GGGGACT,0.0376,0.227,0.99,2.06,-0.0665,2.4,0.28,0.111,0.144
AAGATAA,0.0731,0.0817,-0.232,-0.0564,0.0552,0.113,-0.179,0.00888,0.141
CTTGTCC,0.00231,0.0187,0.0247,-0.735,0.0404,-0.565,-0.0276,0.0786,0.079
CTATGTC,0.0889,-0.183,-0.13,-0.337,0.0236,-1.08,-0.0878,-0.0537,-0.117
CGCTCAG,0.0415,0.0192,-0.485,-0.466,-0.061,-0.763,0.0608,-0.0592,-0.0219
GTCGCCA,-0.0671,0.016,0.304,0.716,-0.029,1.58,0.123,0.0169,0.073
GGTCATT,0.0189,0.0917,0.709,1.83,-0.0305,2.15,-0.013,-0.0524,0.147
GAGTATA,0.0104,-0.0537,0.139,-0.82,-0.291,1.14,-2.55,0.0846,0.0587
TTCCGGA,0.0462,0.0663,0.484,0.713,0.0566,0.789,0.173,0.0721,0.0462
CTTAGGG,0.0306,0.0429,-0.179,0.0543,0.0726,-0.65,0.191,0.0233,-0.0225
CTCATTA,-0.115,0.0858,-0.0929,-1.29,-0.00341,-0.905,-0.216,0.0464,0.148
TAGTGAG,0.0153,0.0105,-0.84,-0.519,-0.0135,-1.24,-0.112,0.0139,-0.0362
TAATCTC,-1.47,-0.0542,-4.1,-3.37,-0.0268,-3.28,-1.49,-0.438,-3.89
